From PubChem BioAssay AID686971 (National Center for Advancing Translational Sciences (NCATS), 2013)
Among all 360,000 compounds or so, about 7,500 (2.1%) were called active. Inconclusive means that the source gave no clear call. Such entries were picked first, then a sample of the others. The call rests on the fitted dose curve; in most records, active means well fitted cell-killing curve with a large enough effect; inconclusive means small, poorly fitted or top-dose-only effect, or effect the other way, or another doubt; inactive means no such curve, though single readings can be large or run the other way. No potency is given beside an inconclusive call; the fits are too rough.

Test: qHTS for induction of synthetic lethality in tumor cells producing 2HG: qHTS for the HT-1080-IDH1KD cell line;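 on activity, negative = toxicity: 0% = DMSO wells and -100% = cell-free medium wells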
Settings: HT-1080 IDH1 knockdown viability, ATP luminescence, 48 h; activity, negative = toxicity: at 46.1 µM (top of the series) unless noted
How it was run: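 After a 2 h attachment period, IDH1KD HT-1080 cells took pin-transferred compound for 48 h at 37 °C; ATP-based luminescence after 10 min room-temperature reagent incubation reported viability.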
Potency means the concentration at half of the fitted maximal effect; tags describe the fitted curve by direction and shape.

| SMILES | activity, negative = toxicity | Potency |
| --- | --- | --- |
| COc1ccc(CNC[C@H]2O[C@@H](n3cnc4c(N)ncnc43)[C@H](O)[C@@H]2O)cc1OC | inactive: 13.4% |  |
| CC(C)(C)c1ccc(OCCC(=O)Nc2ccc(N3CCOCC3)cc2N2CCOCC2)cc1 |  | inconclusive [cytotoxic, single point] |
| COc1ccc(S(=O)(=O)N2CCCCCC2)cc1N(C)S(=O)(=O)c1ccc(C)cc1 | inactive: -2.97% |  |
| COc1ccc(C2CC(=O)Oc3c(C(C)C)ccc(C)c32)cc1 (centres undefined) |  | inconclusive [cytotoxic, single point] |
| CC1(C(=O)Nc2ccc(Cl)c(Cl)c2)CCN1C(=O)CC(c1ccccc1)c1ccccc1 (centres undefined) |  | inconclusive [cytotoxic, partial curve] |
| O=C(NCc1ccc(OC(F)(F)F)cc1)C1CC(c2ccc(C(F)(F)F)cc2)=NO1 (centres undefined) |  | inconclusive [cytotoxic, single point] |
| CC(=O)Nc1cccc(Nc2nc(-c3ccccc3F)nc3ccccc23)c1 | inconclusive: -30.8% [cytotoxic] |  |
| O=C(NCCCN1CCCCC1)c1ccc(CS(=O)c2ccc(Cl)cc2)o1 (centres undefined) | inactive: -2.38% |  |
| CCCN1CCC(=O)N([C@H](CSc2ccc(C)cc2)CC(C)C)CC1 | inactive: -1.88% |  |
| CCOc1ccc(NC(=O)CN2CCN(CC(=O)Nc3ccc(Cl)c(C(F)(F)F)c3)CC2)cc1 |  | inconclusive [cytotoxic, single point] |
| COc1ccccc1Cc1c(-c2ccc(Cl)cc2)nc2c(C)cc(Br)cn12 |  | inconclusive [cytotoxic, single point] |
| CCN(CC)C(=O)C1CCN(S(=O)(=O)c2ccc(C3CNC(=O)C3)cc2)CC1 (centres undefined) | inactive: 13.2% |  |
| COc1ccc(NC(=O)N(C)[C@H]2C[C@H]3c4[nH]c5ccccc5c4CCN3C[C@H]2[C@H](C)O)cc1 |  | inconclusive [cytotoxic, single point] |
| N#Cc1ccc(C2=NC(C(F)(F)F)(C(F)(F)F)c3c(n(Cc4ccco4)c(=O)[nH]c3=O)N2)cc1 | inactive: -5.32% |  |
| COc1cccc(CN2CCC2(C)C(=O)Nc2cccc3cccnc23)c1F (centres undefined) |  | active: 13 µM |
| CCC1=[N+](CC(=O)c2ccc(C)cc2)CCn2c(C)ccc21 |  | inconclusive [cytotoxic, partial curve] |
| CC(=O)/C(=C/N(C)C)C(=O)Nc1ccc(Cl)cc1Cl |  | inconclusive [cytotoxic, single point] |
| Cc1cccc(-c2ccc3c(c2)C2CC3CCN2Cc2ccc3c(c2)OCO3)c1 (centres undefined) |  | inconclusive [cytotoxic, single point] |
| Cc1ccc(C)c(OCCCCCn2ccnc2)c1 |  | inconclusive [cytotoxic, single point] |
| C/C(=N\Nc1nccnc1Cl)c1ccc(O)cc1 | inconclusive: -31.6% [cytotoxic] |  |
| O=C(Nc1ccccc1)Nc1ncc([N+](=O)[O-])s1 |  | active: 9.2 µM |
| Cc1ccc(NC(=O)/C=C/c2ccc([N+](=O)[O-])s2)cc1 |  | inconclusive [cytotoxic, full curve] |
| Cc1ccc(S(=O)(=O)CNC(=S)c2cccc(C)c2)cc1 |  | inconclusive [cytotoxic, single point] |

| SMILES | activity, negative = toxicity | Potency |
| --- | --- | --- |
| CC1(C)OC2OC(C(=O)N/N=C/c3cc(Br)ccc3O)C3OC(C)(C)OC3C2O1 (centres undefined) |  | inconclusive [cytotoxic, partial curve] |
| CC(C(=O)c1ccc(Br)cc1)[n+]1cccc2ccccc21 (centres undefined) | inactive: -0.732% |  |
| C=CCOc1c(Cl)cc(CNc2nccs2)cc1OC | inactive: 13.2% |  |
| OCC1(Cc2ccc(Cl)cc2)CCN(Cc2ccc(Oc3ncccn3)cc2)CC1 |  | inconclusive [cytotoxic, single point] |
| COC(=O)c1ccccc1Sc1ncnc2onc(C)c12 |  | inconclusive [cytotoxic, single point] |
| Cc1ccc(OCCCN2CCC(C(O)(c3ccccc3)c3ccccc3)CC2)cc1 |  | active: 18.4 µM |
| OC(Cn1cnnc1)c1ccccc1 (centres undefined) |  | inconclusive [rising, single point] |
| NC(=S)NN=Cc1c[nH]c2nccnc12 |  | inconclusive [cytotoxic, single point] |
| CCOC(=O)C1=C[C@@H](CC)N(S(=O)(=O)c2ccc(C)cc2)[C@H]1c1cccc(Cl)c1 |  | inconclusive [cytotoxic, single point] |
| Cc1ccc(S(=O)(=O)N2C3CCCCC3O[C@H]2CC(=O)c2cccs2)cc1 (some centres undefined) |  | inconclusive [cytotoxic, single point] |
| C=CCn1c(=NC(=O)c2ccc(S(=O)(=O)N3CCc4ccccc4C3)cc2)sc2cc(S(N)(=O)=O)ccc21 |  | active: 20.6 µM |
| O=C(CN1CCCCC1)Nc1c2c(nc3ccccc13)N(c1ccccc1)CC2 |  | active: 16.4 µM |
| CCOC(=O)N1CCN(S(=O)(=O)c2ccc(C(=O)Nc3sc4c(c3C(N)=O)CCN(CC)C4)cc2)CC1 |  | inconclusive [cytotoxic, single point] |
| CCCC1=Nc2cc(C(=O)N3CCCC3)ccc2Sc2ccc(C)cc21 |  | inconclusive [cytotoxic, single point] |
| COC(=O)c1ccc(COc2ccccc2/C=C/C(=O)c2ccc(OCC(=O)O)cc2)cc1 |  | inconclusive [cytotoxic, partial curve] |
| O=C(Nc1cc(S(=O)(=O)N2CCCCC2)ccc1O)c1ccccc1NS(=O)(=O)c1ccc(F)cc1 |  | inconclusive [cytotoxic, single point] |
| COCc1cc(CN2CCCC2)c(O)c2ncccc12 |  | active: 0.631 µM |
| CC(OC(=O)Cc1n[nH]c(=O)c2ccccc12)C(=O)Nc1ccc(F)cc1Cl (centres undefined) | inactive: -3.44% |  |
| CN(C)C(CNC(=O)C1CCN(S(=O)(=O)c2cccc(Cl)c2Cl)CC1)c1ccccc1 (centres undefined) |  | inconclusive [cytotoxic, single point] |
| Cc1cc(Cl)cc(C)c1OCCNCc1ccccc1 |  | inconclusive [cytotoxic, partial curve] |
| Cn1c(N)c(C(C[N+](=O)[O-])c2c(F)cccc2Cl)c(=O)n(C)c1=O (centres undefined) |  | inconclusive [cytotoxic, single point] |
| CCOC(=O)c1ccc2nc(C(F)(F)F)[nH]c(=O)c2c1 | inactive: -2.23% |  |
| O=C(Nc1ccncc1)c1ccc2c(c1)C(=O)N(C1CCCCC1)C2=O |  | inconclusive [cytotoxic, single point] |

| SMILES | activity, negative = toxicity | Potency |
| --- | --- | --- |
| c1ccc(-c2c[n+]3c(n2-c2ccccc2)SCC3)cc1 |  | inconclusive [cytotoxic, partial curve] |
| CC(C)CCC1(CCNC(C)c2cccs2)CCOC(C)(C)C1 (centres undefined) |  | inconclusive [cytotoxic, single point] |
| COc1c(OC(C)=O)ccc(/C=C/c2ccc3ccccc3n2)c1[N+](=O)[O-] |  | inconclusive [cytotoxic, single point] |
| Cc1ccc(-c2cnc(C(O)c3cc(Cl)cc(Cl)c3)[nH]2)cc1 (centres undefined) |  | inconclusive [cytotoxic, single point] |
| N#Cc1ccc(-c2ccc(OCC(O)CN3CCCCC3)cc2)cc1 (centres undefined) |  | inconclusive [cytotoxic, single point] |
| Nc1ccn([C@@H]2O[C@H](CO)[C@@H](O)[C@@H]2O)c(=O)n1 |  | inconclusive [cytotoxic, full curve, poor fit] |
| Cc1noc(C)c1NC(=O)N(C)C[C@H]1Oc2ccc(NC(=O)Cn3cnnn3)cc2C(=O)N([C@H](C)CO)C[C@@H]1C | inactive: 7.39% |  |
| COc1ccc(CCC(=O)NC2CCCN(Cc3ccc(Cl)cc3)C2)cc1OC (centres undefined) | inactive: 0.982% |  |
| O=C(Nc1ccc2c(c1)OCCO2)C(C1CC1)n1c(=O)c(-c2cc3ccccc3[nH]2)nc2ccccc21 (centres undefined) |  | inconclusive [cytotoxic, single point] |
| C=CCNc1nc(-c2c(C)nc3ncccn23)cs1 | inactive: 4.82% |  |
| NC(N)=N/N=C/c1cccc(Cl)c1Cl |  | active: 20.6 µM |
| NC(=O)/C=C/C(=O)Nc1ccc(Cl)cc1 |  | inconclusive [cytotoxic, single point] |
| CCOc1ccc(S(=O)(=O)Nc2ccccn2)c2ccccc12 | inactive: 9.36% |  |
| COc1ccc(C(CNC(=O)c2ccc(S(=O)(=O)N3CC(C)CC(C)C3)cc2)N(C)C)cc1 (centres undefined) |  | inconclusive [cytotoxic, single point] |
| CC(C)=N/N=C1/NC(=O)C(Cc2ccccc2)S1 (centres undefined) |  | inconclusive [cytotoxic, single point] |
| CC(O)(c1ccc(F)c(F)c1)c1nc(-c2cc(F)cc(F)c2)cs1 (centres undefined) |  | inconclusive [cytotoxic, single point] |
| C[C@@H]1Cc2c(O)c(O)cc(O)c2C(=O)O1 | inactive: -3.26% |  |
| Cc1ccsc1/C=N/NC(=O)c1ccc2ccccc2c1 |  | inconclusive [cytotoxic, partial curve] |
| NC(=O)COC(=O)c1ccc(Cl)c(S(=O)(=O)N(Cc2ccccc2)c2ccc(Cl)cc2)c1 |  | inconclusive [cytotoxic, single point] |
| COc1ccc(Cl)cc1NC(=O)CN(C)C(=O)c1cc2ccccc2cc1O | inactive: -20.1% |  |
| CCN(CC)S(=O)(=O)c1ccc(OCC2CCCCO2)c([N+](=O)[O-])c1 (centres undefined) | inactive: -5.99% |  |
| CC(O)(c1cccc(F)c1)c1nc(-c2ccccc2)cs1 (centres undefined) |  | inconclusive [cytotoxic, single point] |
| COc1cccc(/C=N/NC(=O)C(=O)N2CCCCCC2)c1O |  | active: 13 µM |
